Results on 44 compounds are retold here after publication PMC4336329 (PLoS ONE, 2015).

The campaign covered roughly 310,000 compounds. About 14,000 (4.5%) showed an effect of 50% or more. Effects have a minus sign here. The list shows a part of the results.
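Also: peak tail current of the secondary pulse compared with the same well before compound.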

human ether-à-go-go-related gene (hERG) potassium channel, sequence (Q12809 whole entry, looked up): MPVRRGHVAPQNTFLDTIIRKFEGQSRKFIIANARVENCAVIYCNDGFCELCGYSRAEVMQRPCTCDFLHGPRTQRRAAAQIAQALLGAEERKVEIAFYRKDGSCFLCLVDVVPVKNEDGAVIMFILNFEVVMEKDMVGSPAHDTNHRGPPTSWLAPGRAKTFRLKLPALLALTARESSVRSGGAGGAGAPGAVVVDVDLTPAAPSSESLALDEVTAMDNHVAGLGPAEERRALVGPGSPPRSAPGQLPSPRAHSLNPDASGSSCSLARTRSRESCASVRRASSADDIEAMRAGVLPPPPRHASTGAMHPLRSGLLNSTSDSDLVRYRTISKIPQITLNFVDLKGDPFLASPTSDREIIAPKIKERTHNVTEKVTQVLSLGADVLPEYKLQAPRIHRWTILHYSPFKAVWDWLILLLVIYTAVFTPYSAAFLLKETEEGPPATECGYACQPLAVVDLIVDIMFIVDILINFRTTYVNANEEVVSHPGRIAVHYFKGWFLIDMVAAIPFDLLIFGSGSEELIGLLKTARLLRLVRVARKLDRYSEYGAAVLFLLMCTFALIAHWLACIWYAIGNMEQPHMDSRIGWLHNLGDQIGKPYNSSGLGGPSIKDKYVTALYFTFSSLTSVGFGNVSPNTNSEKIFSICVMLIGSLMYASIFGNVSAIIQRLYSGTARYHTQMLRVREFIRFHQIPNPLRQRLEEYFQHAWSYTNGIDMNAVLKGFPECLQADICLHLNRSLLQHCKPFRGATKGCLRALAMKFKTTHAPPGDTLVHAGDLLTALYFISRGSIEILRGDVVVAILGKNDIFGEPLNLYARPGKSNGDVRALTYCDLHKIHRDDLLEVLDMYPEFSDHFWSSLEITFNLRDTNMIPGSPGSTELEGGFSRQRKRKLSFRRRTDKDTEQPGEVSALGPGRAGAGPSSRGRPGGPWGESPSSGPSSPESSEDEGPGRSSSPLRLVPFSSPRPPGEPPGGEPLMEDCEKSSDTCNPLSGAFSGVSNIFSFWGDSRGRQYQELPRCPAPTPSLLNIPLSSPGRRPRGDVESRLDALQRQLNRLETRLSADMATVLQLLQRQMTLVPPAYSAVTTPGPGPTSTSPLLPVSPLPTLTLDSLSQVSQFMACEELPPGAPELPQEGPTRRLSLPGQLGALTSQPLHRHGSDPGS

The test concerns the target human ether-à-go-go-related gene (hERG) potassium channel (human, UniProt Q12809). As to the kind of experiment: primary screen, population patch clamp on CHO cells stably expressing hERG.
Turning to `Cc1ccc(C)c(N2CCN(C(=O)C3CCCN(S(=O)(=O)c4c(C)[nH]c(=O)[nH]c4=O)C3)CC2)c1` (centres unmarked), the “hERG current change (%, negative = inhibition) at 10uM” value is listed as -3.67%. The value for `Cc1ccc(-n2nc3ccc(N)cc3n2)cc1` was -2.95%; that for `NNC(=O)C1CC(O)CN1S(=O)(=O)c1ccc(Cl)cc1` (centres unmarked) was 12.8%.

With `CSc1nnc(C)c(/C=C/Nc2ccc(F)cc2F)n1`, the “hERG current change (%, negative = inhibition) at 10uM” value was 3.78%. The result for `O=C(NCc1ccccn1)c1ccc(Cl)cc1Cl` reads -10.8%; that for `COC(=O)CC1C(=O)NCCN1C(=O)c1ccc(Cl)cc1` (centres unmarked), 17%. With `Cc1ccc(-c2csc(CC(N)=O)n2)cc1`, the “hERG current change (%, negative = inhibition) at 10uM” value stood at 13%.

In the case of `COc1ccc(OC)c(NC(=O)c2cccc(S(=O)(=O)N3CCN(C(C)=O)CC3)c2)c1`, the “hERG current change (%, negative = inhibition) at 10uM” value is listed as -7.13%. On to `CCCCn1c(N)c(N(CCOC)C(=O)COC(=O)c2ccccc2OCC)c(=O)[nH]c1=O`, for which the “hERG current change (%, negative = inhibition) at 10uM” value was 16.3%. For the compound `Cc1nn(-c2ccccc2)c(C)c1/C=N/NC(=O)c1cc(C23CC4CC(CC(C4)C2)C3)[nH]n1`, the “hERG current change (%, negative = inhibition) at 10uM” value came to 4.5%. The result for `COC(=O)c1c(NC(=O)C2CCCCC2)sc2c1CC(C)(C)NC2(C)C` reads -17.7%. The value for `CN(C)c1nc(N)nc(CSc2n[nH]c(-c3ccccc3)n2)n1` was -8.58%. For `Cc1ccc(-c2[nH]ncc2CN2CCN(C(=O)c3cccs3)CC2)cc1C`, the “hERG current change (%, negative = inhibition) at 10uM” value is on record as -62.5%. Consider `Cc1cccnc1NC(=O)c1sc2ccccc2c1Cl`, for which the “hERG current change (%, negative = inhibition) at 10uM” value is reported as 2.5%. The result for `O=C(c1ccccc1F)N(Cc1cccs1)C1CCS(=O)(=O)C1` (centres unmarked) reads 21.9%. The value for `Cc1ccc(C(=O)NNC(=O)c2nn(-c3ccc(F)cc3)ccc2=O)cc1` was -19.7%; that for `O=C1[C@H]2[C@@H](c3ccc(F)cc3)N3C(=O)N(c4cccc(F)c4)C(=O)[C@@]3(Cc3ccccc3)[C@H]2C(=O)N1C1CCCCC1` was 24.2%. The value for `Cc1ccc(CNS(=O)(=O)c2ccc(C(C)(C)C)cc2)n1C` was 2.63%. As to `NC(=S)NNC(=O)Nc1ccc(Cl)c(Cl)c1`, the “hERG current change (%, negative = inhibition) at 10uM” value stood at 23.5%. The result for `Cn1cc(S(=O)(=O)NCc2ccc(Cl)cc2)c(=O)n(C)c1=O` reads 4.54%; that for `Cc1cc(OCc2cc(C(=O)N(C)CC3CCOCC3)no2)cc(C)c1Cl`, -69%; that for `C=CCc1ccc(OCCOCCN(C)C)c(OC)c1.O=C(O)C(=O)O`, -27.5%. Turning to `COC(=O)[C@H](C(C)C)n1c(C)c(C(C)=O)c(C(C)=O)c1C`, the “hERG current change (%, negative = inhibition) at 10uM” value is reported as 12.6%. Take `c1ccc(NC2=NCCN2CC2CCCC2)cc1`: the “hERG current change (%, negative = inhibition) at 10uM” value was determined as 15.8%.

In the case of `Brc1ccccc1CNCCc1ccc2c(c1)OCO2`, the “hERG current change (%, negative = inhibition) at 10uM” value stood at 0.404%. As to `Cc1ccc2nc(C)c3c(c2c1)N(c1ccc(F)cc1)CC3`, the “hERG current change (%, negative = inhibition) at 10uM” value is reported as -92.2%.

Consider `O=C(COC(=O)c1ncc(Cl)c(Cl)c1Cl)NCc1cccs1`, for which the “hERG current change (%, negative = inhibition) at 10uM” value is 6.8%. As to `FC(F)(F)c1cc(-c2cccs2)nc(-n2cc(Br)cn2)n1`, the “hERG current change (%, negative = inhibition) at 10uM” value is on record as -11.2%. The value for `C[C@@]12CCC=C[C@H]1[C@H](c1ccc(F)c(/C=C/c3ccccc3)c1)N(Cc1ccccc1)C2=O` was 9.05%; that for `COc1ccc(-c2csc3ncn(CC(=O)N4CCOCC4)c(=O)c23)cc1` was 9.88%; that for `O=C(COc1ccccc1-c1ccccc1)NCc1cccc(Cl)c1` was 14.9%.

For the compound `CCCCCC(=O)c1c(C)[nH]c(C(=O)OCC)c1C`, the “hERG current change (%, negative = inhibition) at 10uM” value is -1.63%.

Consider `NS(=O)(=O)c1ccc(NC(=S)NC(=O)c2ccc3c(c2)OCO3)cc1`, for which the “hERG current change (%, negative = inhibition) at 10uM” value is 27.6%. On to `CCOC(=O)N1CCC(NC(=O)c2ccc3c(c2)N(C)CCS3)CC1`, for which the “hERG current change (%, negative = inhibition) at 10uM” value is on record as -8.11%.

On to `Cc1onc(-c2c(F)cccc2Cl)c1C(=O)N1C=CC(C(F)(F)F)=NCC1`, for which the “hERG current change (%, negative = inhibition) at 10uM” value was found to be 7.17%. The result for `CCNC(=S)N1CCN(S(=O)(=O)c2ccc(C)c(C)c2)CC1` reads 8.91%; that for `Nc1nnc(SCC(=O)Nc2ccc(N3CCOCC3)c(Cl)c2)s1`, -8.33%; that for `CC(OC(=O)c1ccc2c(=O)n3c(nc2c1)CCCCC3)C(N)=O` (centres unmarked), 22.5%. On to `CC(=O)N1CCc2cc(Br)cc(S(=O)(=O)NCCN3CCCCC3C)c21` (centres unmarked), for which the “hERG current change (%, negative = inhibition) at 10uM” value is on record as -6.34%. `O=C(NCc1ccc2c(c1)OCO2)C1CCC(CNS(=O)(=O)c2cccc3nsnc23)CC1` (centres unmarked): the “hERG current change (%, negative = inhibition) at 10uM” value was 4.04%.

In the case of `COc1ccc(-n2c(SCC(=O)NCc3cccs3)nc3[nH]ncc3c2=O)cc1`, the “hERG current change (%, negative = inhibition) at 10uM” value is recorded as -23.9%. The result for `O=C(O)CNC(=O)/C(=C\c1ccc2c(c1)OCO2)NC(=O)c1ccc(Br)cc1` reads 8.77%; that for `Cc1ccc(S(=O)(=O)N2CCC(C(=O)N[C@@H](C)C(=O)NC3CCCCC3)CC2)cc1`, 13.9%. Turning to `Cn1c(Cn2cnc3ccccc32)nnc1SCc1ccccc1`, the “hERG current change (%, negative = inhibition) at 10uM” value is on record as -6.18%.
